Assay results: the supplement of paper PMC12632987
In all, about 4,500 sequences were measured (“median log2 fold change of GCK-ALFA target abundance (FLAG IP / Myc IP barcode read proportion)”: median about 0.078, lowest 2% from about -0.6 on). The list shows a part of the results.

B1: GBRAP_160_4450 (protein)
chain: MKTKEELIKEVEEVRERTIELIEGESHENRVVIVEGEFGELLMELAEDERVSDELEDKVAEIIDELVDTLKANPDLSLEEIKELIEEAAEKIKEAIEKEL
B2: GBRAP_9_7147 (protein)
chain: LEELIEKMKEVFEDMVELVREIVPEEVKPVVDKMREEAEKEFEEIKKDKSITKEEAVEKAKKLVEKFTEAVKAEVDPETARMVEAVGLTALLEIEELKEK
B3: GBRAP_128_3181 (protein)
chain: SIEEVKKRTREAMEKIKNSSPEEAREIAEELFEWLKTLSLEEAEAAIETMEELLPELSPEHLEIIADVAREHRPTFTPEKAELVAGLEVEALNLLEEKEE
B4: GBRAP_128_3199 (protein)
chain: MSEEALAELRALADEVIATKTDAAIARFAAAVREALEAGRIDLDALEEIVEYLGKHLDADTLARVEDALREALADVGPEYLATASGALGEAIMEKEEEEE
B5: GBRAP_52_5914 (protein)
chain: MEEEIRKKVLEIIELIKEGKEEEAKKLAKELVEKYNEEELLILIEVLVELVLESPVEELEYWWKAAELIAEALEEAGKDEALADELLARTAAAMYERLQR
B6: GBRAP_64_6489 (protein)
chain: MEEIEESLEELLKLVEELLEAVKDLSEELQKKVEEVKRLVEEAKTASLEERLDLTVEAAKLLNEILKNPELTEEQKELAGLALDKASELAWLLFEAEEEE
B7: GBRAP_52_6348 (protein)
chain: MEERLRRLAEELVELVLAGRLEEARALAREIVATLSDEELRGLFRVLAEMAKEADPERAEAILEAAEILADEMIAAGRDEYEASGYLADVGKAVYENLQK
B8: GBRAP_9_7161 (protein)
chain: MKELIEKMKEIVKEAFEEIKKVVPEEKKPIVDKEKAEVEKKLEELAKDPSITKEEATEKTIELLKEATAVIKAKVTPEIAKMVEAIVLTAELEIEEEAEK
B9: GBRAP_11_2732 (protein)
chain: KKEKLEEIRELAERLAELLQRLIEEGPEDEELRREAEEQLRKLEELVKEYGDEDLKKLVEIIREEWERAQEDPETAVEHLRNALAAARVLAGQVLLEIEE
B10: GBRAP_26_5500 (protein)
chain: MEAAIDAARERLHAAADALLPPEKAALFKAEVDTAVLELEEELEKNKDNLEAQYAAIDKFAAELAEALDALGVPADVAAALRAEVKAVAAELKAALEKSR
B11: GBRAP_184_5335 (protein)
chain: STLEVTIENKSKEEILKEAKKAAKEAAKAGKNLLIHLFLEGKSSEEIAEIVEEIGKIAKEEGIKNLTIGIDQAVDEETADKLIEIADKYGINLTLALEDE
B12: GBRAP_26_5476 (protein)
chain: SEEIVRKALAEIAALLAELPDPELAAAALAEATTIIVEAAEEMEKNKDNPEKLKKIVEDAVKELREELERLGVPEEVRERVVKAAREGLEELAKEILKKS
B13: GBRAP_39_5706 (protein)
chain: SKEEEAEDTFSYYEARGAKDAVERGWDDEEVVKKTEELAEEIIKRYPELKPLVEEALKLAKEKGIVAVLALYGVLLDAKEGLPVEELREKLELLIAYLKS
B14: GBRAP_128_3405 (protein)
chain: MDEAKVAKAKALIDAILEADKEEAKKLAAELEKLLLEADVETVAAVVEYIETKADQFNEEQLAILMDAFHNVAKNSDPEKAELAVEAIGILGEKLYELEE
B15: GBRAP_11_2767 (protein)
chain: KKEKLKEAKKLAEELAKLLKELIEKGVDDEELLKEAEKKLKELEKLVKEYGDEDMKKLAKIMKELWEKLKKDPENAEKYAKELLAAAEVLAGQFELEIDE
B16: GBRAP_9_7179 (protein)
chain: EEEAKKKILEVFREEGEEAIELAPEEKRPLVEELIEKALKKLEEAAKDPSKSLEELLELLEKLADEIVEELRKHLPEEVYRRIEAELGTAILEAEEIIEE
B17: GBRAP_11_2861 (protein)
chain: KKEKLEEMKKLAEELIKLLEKLIEEGVTNEELLKEAEKLLEELLKLAKELGDKSLVKLAEIALEELEKAKENPETALEHVQNALAAMRVLLGQILLLIDE
B18: GBRAP_122_2957 (protein)
chain: SKEELIEKMVKETLERAEKGDPAQALLDALKEAAEKLDAESLIELAERLKEEMLKRGWEADALRAYAAAAVWLHENKPELEEAADHLLDLALELEDRLEE
B19: GBRAP_184_5133 (protein)
chain: TVLHRAVRATTAEALIAAARAAVDEAAAAGAELVLSVFAEGLSVEEKIAVIRELGALKAAHPQIKAIIVELDEVSEEDMDRLIAAADEAGVKLVIAIPDE
B20: GBRAP_160_4570 (protein)
chain: SEEHKELIKEIEEITEEAIEFIKGENYENRLNIVKVAAGEILLLLDENPEVSEETLEKADEIFDELIEEIESNPELTEEEIQKLLREAVEEIKKLIEKES
B21: GBRAP_128_3358 (protein)
chain: LDEEKLKEIKELWEQMVNSDVETTYELAKELFKKMSKMSKEEKEAAVEIALEYLPKLTAEKLEAVADAIREMWPLFDPFTKELMAELEVDALNLAEEKEE
B22: GBRAP_9_7172 (protein)
chain: LKAAAAAAIAELREARDFILEIAPEAAAGAVDAAFDALIAALEAARADPTVTPEQFEATLAAGFAAIRAAAAAHLSPEVAAAVETEMLTVRDIADEKLDE
B23: GBRAP_52_6203 (protein)
chain: MRERMRRLAEEIVELVKAGRREEARALAREVAETLDDEELRLLIEEFARLAREARPEDFDAVFEAAEIFEDVLLELGRDEALADDVLNEVAAALYERELA
B24: GBRAP_160_4477 (protein)
chain: MEKVKKTVEDLVKDVLETLEENADLPVKDLLLAVQVTVGSNLMEAVENGTLSDEQEDIVIKAMDEIEELMKESKDMSVEEAKERAKEIIEKMAKEILEAA
B25: GBRAP_39_5707 (protein)
chain: EEEEEAEEAFSYYEARGAKYQVERGLTLEEARAEARRLAEELVARHPELAELVRRALELAEAAGDLAILALLGALTAAEEGLPLEELRERLELLIRHLES
B26: GBRAP_43_5755 (protein)
chain: MEELLEGFLELLKLLTEDPSVTEEQLLAYLKEGFDMLADEGIVLEKEFLAAVEAASKRLSKEQLEEALAHAEKIAKENPKVKATFEKAAKILKAAIAKKK
B27: GBRAP_106_2559 (protein)
chain: ARREKVEAILAETEARLRAELARTEAIIAANADRLTPEEKRAMRNYTVKASFAEGLRRLQKEVGLSDADARAILDKVLAHIDAPLEEQIAVFREAVLAVV
B28: GBRAP_106_2555 (protein)
chain: SEEEKFEKLIKESREEAEKEIADTRAWLAARRDQLTPEEIRAIETYTKKYLVAKILHKAIEAGFITKEEAEEILKEALSKTDFTPEEAVKFTLEKIKELY
B29: GBRAP_52_5913 (protein)
chain: MEEEIREFVEKLIELIKEGKEEEARELAKKFVEEKNEEEIRIAIEVLVELVLESPEEELPYWEKAAELIAEALEEAGKDEVLADDLLARTAAAIYERLQK

molecular target: GABARAP, O95166; assay: median log2 fold change of GCK-ALFA target abundance (FLAG IP / Myc IP barcode read proportion) (log2 ratio); each designed protein is fused to an ALFA-tag nanobody in HEK293 cells to bring the named protein to FLAG-tagged glucokinase (GCK); Myc marks an untargeted standard; higher = target protein stabilised (more abundant); conditions: target protein: 3xFLAG-MCP-GCK-ALFA reporter; HEK293 landing pad (RPLP)
How it was run: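 The readout is target abundance, the per-binder median log2 ratio of FLAG to Myc barcode read proportions. It came from HEK293 landing-pad cells carrying a recombined ALFA-nanobody-fused binder library, induced with 2 μg mL^−1 doxycycline and transfected with a plasmid for a FLAG-tagged target and a Myc-tagged standard. After 48 h, lysates were immunoprecipitated with anti-FLAG and anti-Myc, and circular RNA barcodes were reverse transcribed, amplified and sequenced. Each barcode needed a proportion of at least 10^−7 in both replicates and each binder at least 3 barcodes per replicate, a pseudocount of 10^−6 was added, and the replicates were pooled.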

Sequence of GABARAP, O95166 (O95166 whole entry, the tested form may be a part): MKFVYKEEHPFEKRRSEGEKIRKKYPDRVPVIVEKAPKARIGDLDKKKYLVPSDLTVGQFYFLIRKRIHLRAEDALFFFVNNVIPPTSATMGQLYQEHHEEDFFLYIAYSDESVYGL

Row | Binder | median log2 fold change
1 | B1 | 0.121
2 | B2 | 0.0519
3 | B3 | 0.301
4 | B4 | 0.224
5 | B5 | -0.0875
6 | B6 | 0.0238
7 | B7 | 0.199
8 | B8 | 0.0978
9 | B9 | 0.303
10 | B10 | 0.269
11 | B11 | 0.137
12 | B12 | 0.114
13 | B13 | 0.184
14 | B14 | 0.171
15 | B15 | 0.328
16 | B16 | 0.191
17 | B17 | 0.292
18 | B18 | -0.0878
19 | B19 | 0.104
20 | B20 | -0.128
21 | B21 | 0.0777
22 | B22 | -0.00921
23 | B23 | -0.0514
24 | B24 | -0.0383
25 | B25 | 0.333
26 | B26 | 0.0117
27 | B27 | 0.075
28 | B28 | -0.507
29 | B29 | 0.2
